Results as given in paper PMC12136788.
Some of the results follow.

B1: ENSG00000070961:be:win_2451|CDS|ENSG00000070961|bound_else_gene|NA|bound_elsewhere_windowed (ssRNA)
RNA: GGGAGUUCUACAGUCCGACGAUCUGGAACUGAUGUAGCUAAAGAAGCAUCCGAUAUUAUUCUCACAGAUGACAACUUUACAAGCAUUGUUAAAGCAGUUAUGUGGGGACGAAAUGUCUAUGACAGCAUCUCAAAAUUCCUUCACAACAGAGGAUUGAGCAUCA
B2: chr16:56429670:56429771:-|3pUTR|ENSG00000167005|msi1|total|mutant (ssRNA)
RNA: GGGAGUUCUACAGUCCGACGAUCCAAUCACUGAGACUGCAUCAGAGUUUGCAAUUUUGUAUGUUUCAUUGCCAAAGAAGGCUCCGUGGUUGUUGACUGCCGUAUAAGUCAGCUUUCUGCCGCAUAAGAUUUGAUUUUCCCAUACAACAGAGGAUUGAGCAUCA
B3: ENSG00000124766:be:win_3601|3pUTR|ENSG00000124766|bound_else_gene|NA|bound_elsewhere_windowed (ssRNA)
RNA: GGGAGUUCUACAGUCCGACGAUCUGUACUGCGUUUUUCAUUCUUGUAUUUGACUAUUUAAUCCUUUCUACUUGUCGCUAAAUAUAAUUGUUUUAGUCUUAUGGCAUGAUGAUAGCAUAUGUGUUCAGGUUUAUAGCUGUUGUGCAACAGAGGAUUGAGCAUCA
B4: ENSG00000103657:stop:overlap|stop_codon|ENSG00000103657|stop_codon|NA|stop_codon (ssRNA)
RNA: GGGAGUUCUACAGUCCGACGAUCAGUUUUCUGUUGCUUUGACCAAAGAUGGUCAUGUGUAUACCUUUGGUCAAGGUGGUGAGUAGUCACUAUGACCUCCUUUCAGUAUAGAUAAUUUUCCACUUCUCUUUCAUGUGCUUUAUUCAACAGAGGAUUGAGCAUCA
B5: chrX:120613669:120613770:+|3pUTR|ENSG00000232119|msi1|total|mutant (ssRNA)
RNA: GGGAGUUCUACAGUCCGACGAUCUAUGCCUCCUGUAUAUCCUGUAAACAAAUAAGAUUGAUCAGAUUCAGGUUCAGUUUUUUCCGUGCCUUCUUUUGAGUAAAGUCAUACCAAACAGAUGCCCAGAACAUCUGGAUUUGGGUCCAACAGAGGAUUGAGCAUCA
B6: chr7:82949737:82949846:-|CDS|ENSG00000186472|unk|FALSE|unique (ssRNA)
RNA: GGGAGUUCUACAGUCCGACGAUCAAGUCCUCAAUAUCUGAGUGCCACAUCUCCACCCAAAGACAAGAAACGCCCAACACCUUUAGAGAUUGGUUAUUCAUCUCACCUCCGGGCAGAUUCCACAGUACAGCUGGCUCCUUCCCCCAACAGAGGAUUGAGCAUCA
B7: chr5:177595998:177596040:+|3pUTR|ENSG00000184840|msi1_unk|total|mutant (ssRNA)
RNA: GGGAGUUCUACAGUCCGACGAUCCCUGAGCUGCUUCACAUGGUUGUCCAUUCUGGGGCUUAAAGAACUGGGACCAGACCAAGCCGAGGCCUUGGUGCUGGUUGGGGUGGGGCCUGCAGAGUCUCCGUUACUGAUUUCAUUUUCCAACAGAGGAUUGAGCAUCA
B8: chr5:56881662:56881777:+|CDS|ENSG00000095015|unk|total|mutant (ssRNA)
RNA: GGGAGUUCUACAGUCCGACGAUCGAUCUACUUGAGUUCUGCAAGAAUGGUUACUACAGUACCCCAUGUGUUUUCAAAACUGUCCGAAAUGCUGAGUGUUUCCAGUUCCACUCACUUCACCAGGAUGCGUCGCCGUUUGAUGGCCAACAGAGGAUUGAGCAUCA
B9: chr9:133763799:133763900:-|3pUTR|ENSG00000160293|msi1|total|mutant (ssRNA)
RNA: GGGAGUUCUACAGUCCGACGAUCCGAACCGUUUCACUGUCAGCCUGCCCUCGGCGACCCAUCACUGGGUAUGCUAUUGUACACCGAGGAAACCUGGGCCCGCCCCACCCAGAGCGCAGAGGAGGGGGCACCGACAGCGCUGCGCAACAGAGGAUUGAGCAUCA
B10: ENSG00000198589:be:win_6451|CDS|ENSG00000198589|bound_else_gene|NA|bound_elsewhere_windowed (ssRNA)
RNA: GGGAGUUCUACAGUCCGACGAUCGCUGUGAUGUUCAACUUCCCAGACCCUGCAACAGUAAAGAAAGUGGUUAACUAUCUACCUCGUGUUGGCGUUGGAACAAGUUUUGGAUUGCCUCAAACCAGACGUAUUUCAUUAGCUAGUCAACAGAGGAUUGAGCAUCA
B11: chr9:137457406:137457901:-|CDS|ENSG00000165802|control|control|control (ssRNA)
RNA: GGGAGUUCUACAGUCCGACGAUCCGCCUGUCCCUCGUCUCCAACGGCUGCUACGAGGGCAGCCUCUCAGAGGAGCCCAGCAUUAGGAAGCCCGCAGGCGAGGGCCCUCAGCCUCGAGUGUACACCAUCUCUGGGGAGCCUGCCCAACAGAGGAUUGAGCAUCA
B12: chr8:140515610:140515764:+|3pUTR|ENSG00000104472|unk|FALSE|unique (ssRNA)
RNA: GGGAGUUCUACAGUCCGACGAUCUUUUGGAAUCAGUUCUUAUAAACAGCUCGAUUCAGUUUUAGCUAAAUUUAUAGUUUAGGUAGUAUGUUACAUUUGAAUUUUUGUCUUAAGAAAAGUUGACUGUUCAGAUAUUUUUCUACUCAACAGAGGAUUGAGCAUCA
B13: chr14:21351797:21351898:-|3pUTR|ENSG00000092201|msi1|total|mutant (ssRNA)
RNA: GGGAGUUCUACAGUCCGACGAUCGAGGAAGGCUCAAAGGAGUCAACAUUUAUAUCUGGAAGGGACAAGUCAUGCCUUGGGCCCCGAAUACCCUGAUGAGAAAAGAGAAGAGGAAGGGAGGCCAUAUCUACAACACAGCCUCUCCAACAGAGGAUUGAGCAUCA
B14: chr3:179334110:179334217:+|CDS|ENSG00000121864|unk|FALSE|unique (ssRNA)
RNA: GGGAGUUCUACAGUCCGACGAUCACAUACAAAAAUUUUUCCUCAUGUUUGUGAUGACUGUGGGAAAGGCUUUUCAAGUAUGCUAGAAUAUUGCAAGCAUUUAAAUUCACAUUUAUCUGAAGGGAUUUAUUUAUGUCAAUAUUGCAACAGAGGAUUGAGCAUCA
B15: chr3:113978857:113979010:-|three_prime_utr|ENSG00000163617|control|control|control (ssRNA)
RNA: GGGAGUUCUACAGUCCGACGAUCGCAGAAGAACAUUACUCUUUGUUCCUGCAGAGGAAAUACAUGCUGACGUGGUUCCAGCGUAGUCAGGAAAGUCUGGCUAGAAAGAUGGCCCAGGCUGAUCAAUUUUAUUCCCAAAUACUGCAACAGAGGAUUGAGCAUCA
B16: chr1:153662446:153662560:-|CDS|ENSG00000143621|unk|FALSE|unique (ssRNA)
RNA: GGGAGUUCUACAGUCCGACGAUCAAUCACCUUUUUCUCUUUCCUAGAUCUUGCUUCUGAAAUAUCUACCUGGGAUGGAGUGAUAGUAACACCUUCAGAAAAGGCUUAUGAGAAGCCACCAGAGAAGAAGGAAGGAGAGGAAGACAACAGAGGAUUGAGCAUCA
B17: chr5:159157431:159157536:-|3pUTR|ENSG00000145860|unk|total|mutant (ssRNA)
RNA: GGGAGUUCUACAGUCCGACGAUCCAAAAAGUGUUUUUCAGACCUCGGUAUUCCUAAUGUGGGAUGUGACUUUAUUUUAUUUUCCGCCGCAAAUUUGGAUGCCGACUGACAGACACCGCUGAAUGUCUUAAUAAAUUUAAAUUUCAACAGAGGAUUGAGCAUCA
B18: chr4:67508813:67509105:-|CDS|ENSG00000145241|control|control|control (ssRNA)
RNA: GGGAGUUCUACAGUCCGACGAUCAUGCAUCACAAUAGUAGCCGAAAAUCUACUAAGAAAACAAAUCAGUCAUCUAAGAAUAUUAGGAAAAAAACUAUUCCACUUAAAAGGCAGAAGACAGCAACUAAAGGCAACCAAAGAGUACAACAGAGGAUUGAGCAUCA
B19: chr1:150220393:150220494:-|3pUTR|ENSG00000143401|msi1_unk|total|mutant (ssRNA)
RNA: GGGAGUUCUACAGUCCGACGAUCAUUGUAUGCCGAGAAAAAUUUUCAUUGACUCCCAUUGUGGAAUUCCCCCGCAAUUUAUUCCGACUUAAUUUUUUAAAUUCAAGCUUACUGUAUCCGUCAUUUUCCGCCCAUAAUUAAAACCAACAGAGGAUUGAGCAUCA
B20: chr22:46679111:46679212:+|3pUTR|ENSG00000075240|msi1|total|mutant (ssRNA)
RNA: GGGAGUUCUACAGUCCGACGAUCAGGGCCCGGCAGUGCCCAAGGAUGGGUCCGGGGCCUCGGGGCCAAUGAGCGCCUCUUCCCCGGUGCUGGGAUUCAGUCCCCAAACACAGCGGGAGGGGUCCCUGGGGCAGAUGGGGCUUUCAACAGAGGAUUGAGCAUCA
B21: chr3:51993521:51994126:-|three_prime_utr|ENSG00000162244|control|control|control (ssRNA)
RNA: GGGAGUUCUACAGUCCGACGAUCCAGCUUCAGUUCCAGCUCAGGCUCCCAAACGUACCCAGGCCCCUACAAAGGCUUCAGAGUAGAUAUCUCUGCCAACAUGAGGACAGAAGGACUGGUGCGACCCCCCACCCCCGCCCCUGGCAACAGAGGAUUGAGCAUCA
B22: chr1:37566712:37566813:+|3pUTR|ENSG00000163879|unk|total|mutant (ssRNA)
RNA: GGGAGUUCUACAGUCCGACGAUCGCUUUAUUUCCCCCGCACUGGUGAAGGGCUUCAACUGUCAAACCUCAGAACAAAUGCAUCCGGGCCUCCGAAAUGUCAAUGGGGCAGGAAGAAAACACAAUUUCUAACUGCCUGUUUUUGCAACAGAGGAUUGAGCAUCA

The binders below were run against MSI1 full-length (mouse, UniProt Q61474 1-362) (assay: nsRBNS (natural sequence RNA bind-n-seq); RBNS binding buffer (assumed for nsRBNS): 25 mM Tris pH 7.5, 150 mM KCl, 3 mM MgCl2, 0.01% Triton X-100, 500 ug/ml BSA, 20 U/ml SUPERase-In, 4 C; UNK is unkempt and MSI1 is Musashi-1; names of the RNAs are library labels; protein concentration not given here; high values mean tight binding).
UniProt Q61474, sequence (Q61474 whole entry): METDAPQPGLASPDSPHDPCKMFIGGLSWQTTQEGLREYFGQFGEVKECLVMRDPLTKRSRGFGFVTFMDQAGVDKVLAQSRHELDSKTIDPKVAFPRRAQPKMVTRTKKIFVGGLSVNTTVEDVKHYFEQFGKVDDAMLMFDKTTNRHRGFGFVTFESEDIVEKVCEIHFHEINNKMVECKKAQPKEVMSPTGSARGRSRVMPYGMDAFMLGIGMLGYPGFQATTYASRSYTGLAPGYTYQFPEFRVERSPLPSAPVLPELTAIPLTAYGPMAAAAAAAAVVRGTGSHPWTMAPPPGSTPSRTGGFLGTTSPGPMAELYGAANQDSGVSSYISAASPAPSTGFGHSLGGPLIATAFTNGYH
In the case of B1, the binding signal is reported as 0.203 enrichment R.
Binder B2 has a binding signal of 0.291 enrichment R.
B3 showed a binding signal of 1.86 enrichment R.
With B4 the binding signal was 0.712 enrichment R.
B5 was tested, and the binding signal was 0.25 enrichment R.
In the case of B6, the binding signal is reported as 0.661 enrichment R.
Binder B7 has a binding signal of 0.42 enrichment R.
With B8 the binding signal was 0.393 enrichment R.
B9 was tested, and the binding signal was 0.483 enrichment R.
With B10 the binding signal was 3.48 enrichment R.
For B11, the binding signal was 0.4 enrichment R.
For B12, the binding signal was 69.1 enrichment R.
With B13 the binding signal was 1.04 enrichment R.
In the case of B14, the binding signal is reported as 0.274 enrichment R.
With B15 the binding signal was 0.403 enrichment R.
In the case of B16, the binding signal is reported as 0.576 enrichment R.
In the case of B17, the binding signal is reported as 0.361 enrichment R.
For B18, the binding signal was 1.28 enrichment R.
In the case of B19, the binding signal is reported as 2.27 enrichment R.
B20 gave a binding signal of 0.331 enrichment R.
For B21, the binding signal was 0.728 enrichment R.
With B22 the binding signal was 0.361 enrichment R.
